Consider one molecule from PMC10148413.

Results are given in words; binding and its absence hold for the method and conditions named. Some results given as binding are weak or reduced against the parent protein; the word gives no strength. Where a sequence is shown, tags or fusion partners need not be part of it.

The target of the test is T1, 6× His-tagged Ash1 (1041–2226 a.a.) (fly) (UniProt Q9VW15).
T1 sequence: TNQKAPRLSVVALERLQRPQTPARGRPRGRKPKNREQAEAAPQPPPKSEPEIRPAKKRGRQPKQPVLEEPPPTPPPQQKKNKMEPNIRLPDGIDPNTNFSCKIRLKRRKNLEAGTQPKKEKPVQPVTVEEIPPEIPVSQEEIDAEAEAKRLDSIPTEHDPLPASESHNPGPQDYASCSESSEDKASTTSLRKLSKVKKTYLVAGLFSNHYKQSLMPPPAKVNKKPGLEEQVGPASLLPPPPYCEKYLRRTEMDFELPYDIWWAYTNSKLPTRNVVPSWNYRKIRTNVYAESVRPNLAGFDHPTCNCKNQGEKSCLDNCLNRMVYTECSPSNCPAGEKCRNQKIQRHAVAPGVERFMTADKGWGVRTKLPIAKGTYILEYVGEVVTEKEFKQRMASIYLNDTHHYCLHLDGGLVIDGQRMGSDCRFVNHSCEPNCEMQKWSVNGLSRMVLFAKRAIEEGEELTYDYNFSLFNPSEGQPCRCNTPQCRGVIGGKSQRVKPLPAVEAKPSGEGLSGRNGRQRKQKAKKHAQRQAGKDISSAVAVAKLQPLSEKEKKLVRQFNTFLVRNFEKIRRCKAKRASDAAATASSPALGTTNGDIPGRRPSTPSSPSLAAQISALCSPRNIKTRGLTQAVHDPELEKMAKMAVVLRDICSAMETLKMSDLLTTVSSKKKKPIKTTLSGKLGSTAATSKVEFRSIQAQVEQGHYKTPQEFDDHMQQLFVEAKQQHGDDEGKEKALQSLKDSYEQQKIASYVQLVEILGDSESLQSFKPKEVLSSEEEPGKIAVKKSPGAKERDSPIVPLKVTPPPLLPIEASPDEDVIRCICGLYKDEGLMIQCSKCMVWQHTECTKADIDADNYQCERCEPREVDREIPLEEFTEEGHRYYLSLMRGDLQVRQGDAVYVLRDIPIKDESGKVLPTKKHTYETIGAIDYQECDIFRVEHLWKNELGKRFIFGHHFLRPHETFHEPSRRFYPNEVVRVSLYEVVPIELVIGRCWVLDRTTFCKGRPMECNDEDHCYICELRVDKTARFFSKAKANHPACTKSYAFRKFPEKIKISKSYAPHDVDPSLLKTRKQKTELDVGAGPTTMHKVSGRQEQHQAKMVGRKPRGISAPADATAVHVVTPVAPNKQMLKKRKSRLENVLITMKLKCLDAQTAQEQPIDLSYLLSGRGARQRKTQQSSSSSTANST
Description: co-purification (Ni-NTA, HiTrap Q HP, Superdex 200); His-tagged Ash1 (1041-2226), Mrg15 and Caf1 co-expressed in Sf9 cells; Ni-NTA with washes up to 1 M NaCl, tag cut by TEV, ion exchange and size exclusion in 300 mM NaCl, 50 mM Tris-HCl (8.0). On the technique in general: In gel filtration, larger molecules generally elute earlier.

B1: full-length Mrg15 (protein, UniProt Q9Y0I1 1-424)
chain: MGEVKPAKVENYSTGTDANTLFVDGERVLCFHGPLIYEAKVLKTKPDATPVEYYIHYAGWSKNWDEWVPENRVLKYNDDNVKRRQELARQCGERSKKDNKKGSAKAKKMEQMRNESRASTPSKDSNTSQSTASSTPTTSAGPGSKSEAGSTGTTTTNSTANSTTSRAHRKSTQSTPSTARPGTPSDKKEDPAAAETTEEEGPVAPKKKRMSEQRPSLTGSDVAEKPLPPTTTPSTPTTEPAPCVESEEAYAAKVEVKIKIPDELKHYLTDDWYAVVREHKLLELPAKVTVQQISEQYLAHKKSVKSTSASKEVAINDVLDGIVEYFNVMLGSQLLYKFERTQYADVMQKHPDTPLSELYGSFHLLRLFVRLGSMLSYSALDQQSMQNLLTHVQDFLKFLVKNSSIFFSMSNFINVDPEYVRNAQ
In the case of B1, the binding result is recorded as “binds”.
